{"source": "patent US20190161551A1", "about": "(Regeneron, published 2019)", "binders": {"B1": {"name": "mouse TrkB.hFc (Fc fusion)", "chain": "not shown", "notes": "also called mTrkB.hFc; mTrkB-hFc"}}, "target": "T1, human brain derived neurotrophic factor (human, UniProt P23560 129-247, limits assumed)", "T1 construct": "the assays used the R&D Systems protein; also called BDNF; hBDNF", "T1 sequence (looked up)": "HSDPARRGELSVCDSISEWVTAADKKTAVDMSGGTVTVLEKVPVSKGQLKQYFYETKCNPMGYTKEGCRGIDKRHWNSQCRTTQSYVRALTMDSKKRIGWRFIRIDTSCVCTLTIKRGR", "experiment": "ELISA, dose-response of TrkB on plate-coated BDNF", "description": "FIG. 5. Consists of FIG. 5A and FIG. 5B which show the ability of anti-mouse TrkB monoclonal antibodies to block interaction between mouse or rat TrkB and its ligand BDNF (Brain Derived Neurotrophic Factor). ELISA-based methods were used to assess the binding of (FIG. 5A with two graphs) mouse TrkB.hFc and (FIG. 5B with two graphs) rat TrkB.mmh to plate coated BDNF in presence of a range of concentrations of Anti-mouse TrkB and isotype control mAbs. […] Molarity (M) indicates antibody concentration for mAbs. Error bars represent Standard Deviation.\nExperiments were carried out using the following procedure. Human BDNF was coated at a concentration of 0.5 μg/mL (for blocking mouse TrkB.hFc interaction) or 0.3 μg/mL (for blocking rat TrkB.mmh interaction) in PBS on 96-well microtiter plate and incubated overnight at 4° C. […] In a 96-well dilution plate, 850 pM mouse TrkB.hFc or rat TrkB.mmh was mixed with the three-fold serially diluted anti-mouse TrkB antibodies and control antibody. The final antibody concentrations ranged from 1.69 pM to 100 nM. The protein-antibody mix was incubated at room temperature (RT) for 1 hour. […] Plate-bound mouse TrkB.hFc was detected with HRP-conjugated goat anti-human Fcγ fragment specific antibody (Jackson Immunoresearch) and rat TrkB.mmh was detected with HRP-conjugated anti-histidine antibody (Qiagen). […]"}
{"binder": "B1", "values": [{"measurement": "EC50", "result": 0.78, "unit": "nM"}]}
